± gives the standard deviation of the averaged measurements. Over roughly 33,000 sequences, “E-score (dimensionless, -0.5 to 0.5)” has its median near -0.046; the highest 2% begin near 0.36. Some of the results follow.
The sequences below were run on T1, SpTbr T-box DNA-binding domain (GST fusion) (assay: PBM E-score of 8-mer (E-score (dimensionless, -0.5 to 0.5)); Tbr is Tbrain of the sea star Patiria miniata (Pm) or the sea urchin Strongylocentrotus purpuratus (Sp); higher = stronger binding preference; most listed sequences are background and not binding sites). Settings: the construct has about 5 more residues each side.
T1 sequence: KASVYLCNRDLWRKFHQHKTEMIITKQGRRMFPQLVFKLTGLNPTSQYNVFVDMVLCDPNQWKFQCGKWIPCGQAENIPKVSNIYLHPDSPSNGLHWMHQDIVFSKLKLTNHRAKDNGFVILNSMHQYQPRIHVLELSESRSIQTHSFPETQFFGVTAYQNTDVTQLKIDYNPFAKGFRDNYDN
How it was run: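 Using the Universal PBM Analysis Suite, every ungapped 8-mer received an enrichment E-score averaged over duplicate arrays. Probe intensities came from double-stranded Universal Agilent oligonucleotide arrays incubated with 200 nM GST-fused Tbr T-box DNA-binding domain in PBS (pH 7.5). That protein was expressed in BL21 E. coli at 20 °C and purified by glutathione affinity chromatography.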

Sequence	PBM E-score of 8-mer
GTTCGAGA	-0.0843 ± 0.056
ATAAAGCC	-0.225 ± 0.016
CTTCATCA	0.0213 ± 0.084
CGATAGGC	0.0244 ± 0.11
GCGTGCGA	0.317 ± 0.025
GGAGGAAA	-0.307 ± 0.026
GTGCTGCA	0.00563 ± 0.034
CCCGGAGA	-0.111 ± 0.064
CGTGAAAA	0.329 ± 0.069
GCTGACGA	0.165 ± 0.034
ATCAGGGC	-0.146 ± 0.015
CAAGAATG	-0.237 ± 0.018
GATAACAC	0.414 ± 0.022
AGGTATCC	-0.223 ± 0.042
ACATACAC	0.0995 ± 0.068
AGGGACTA	-0.1367 ± 0.00023
ATGGTGAC	0.2478 ± 0.0011
CAGAACTC	-0.14 ± 0.0083
AATGATGG	-0.116 ± 0.046
AATTCCCG	-0.145 ± 0.036
CACCGCAA	0.00114 ± 0.00069
GCTCCTCC	-0.323 ± 0.025
AGACAAAA	-0.22 ± 0.016
ATGCTGGA	-0.245 ± 0.017
GCACTCGC	0.242 ± 0.083

Sequence	PBM E-score of 8-mer
GCAGCGGA	-0.249 ± 0.033
AAGTGACA	0.427 ± 0.013
GGTGTTAC	0.4612 ± 0.0021
AACACGAC	0.199 ± 0.024
AATCTCAA	-0.0835 ± 0.06
CCACCTCA	0.172 ± 0.067
ACTTAGCA	0.0642 ± 0.0081
GAGCTTCC	-0.129 ± 0.05
CCTCCGCA	-0.0325 ± 0.035
CATCCATA	-0.317 ± 0.0032
CACAGGAA	-0.171 ± 0.023
ACAATCGG	0.0458 ± 0.055
GCATTGAC	-0.0995 ± 0.018
GCTAGCAC	0.2678 ± 0.0018
TACCCATA	-0.226 ± 0.01
AGATAGCC	-0.215 ± 0.025
CGCAGACC	-0.171 ± 0.094
ATCTTCTG	-0.297 ± 0.0093
CCCGACGC	0.095 ± 0.062
AGTAACGG	0.0168 ± 0.06
GGGATCAC	-0.0302 ± 0.016
CGGCCCTC	-0.119 ± 0.093
CCGATAGC	0.146 ± 0.036
AGGAGTAT	-0.223 ± 0.0026
AACATGGA	-0.0817 ± 0.015

Sequence	PBM E-score of 8-mer
GGGATAGA	-0.105 ± 0.048
GATGTGCC	0.109 ± 0.0022
GACCTGGC	-0.0497 ± 0.02
AAGAAGAC	-0.26 ± 0.033
CAGAATTC	-0.221 ± 0.0065
AACCCACA	0.255 ± 0.0092
CCCGATCA	-0.0783 ± 0.071
CACAGTGG	0.10376 ± 5.7e-05
GGACCGAC	-0.266 ± 0.043
ACGACTTC	-0.0729 ± 0.027
GGCGTACA	-0.194 ± 0.09
ATATTCAC	0.32 ± 0.028
CCACGTCC	-0.0592 ± 0.004
CACTTATC	0.2997 ± 0.0029
CTGGGCAA	-0.0664 ± 0.0081
CAATTTAA	-0.105 ± 0.045
ACTGGTAG	0.044 ± 0.013
CAAGGGGC	-0.144 ± 0.015
AAGACGCG	-0.0698 ± 0.056
ACATCCGA	-0.0634 ± 0.053
TAATGACA	0.16 ± 0.017
ACACAATG	0.145 ± 0.029
CGGTTCTC	0.112 ± 0.029
CCGCTACG	-0.226 ± 0.0084
GAGGCACC	-0.0756 ± 0.035

Sequence	PBM E-score of 8-mer
ACCTGTTG	0.293 ± 0.0091
CGTGTTGC	0.228 ± 0.0076
CGATCGCG	0.297 ± 0.063
AGTAACTG	0.0261 ± 0.035
ACGGACAA	-0.0712 ± 0.016
AGCAAACT	0.0268 ± 0.0054
AAAATAGC	0.141 ± 0.0033
ACTTTTTC	0.0987 ± 0.0086
CAGCCTCA	-0.103 ± 0.12
GACCTTAC	-0.286 ± 0.0076
CGTGAATA	0.316 ± 0.024
CCCTATAC	-0.295 ± 0.038
CCCGGTGC	-0.114 ± 0.013
ATTGGCGG	0.0161 ± 0.057
ACCCCAAG	0.0279 ± 0.13
ATCGGACA	0.0309 ± 0.026
CGGAAGCA	-0.189 ± 0.015
CGGATTAG	-0.185 ± 0.026
GCGGCTGA	0.0162 ± 0.094
TCCGCAAA	-0.0601 ± 0.0079
AACGTCCA	-0.241 ± 0.014
AAGATCTA	0.0306 ± 0.046
CGGCGGTA	-0.1368 ± 0.00034
GGGAAGGA	-0.248 ± 0.03
GTTATAGA	-0.0442 ± 0.027

Sequence	PBM E-score of 8-mer
AAAAAATG	-0.186 ± 0.059
CCAACGGC	-0.0264 ± 0.036
ATCTAACA	0.175 ± 0.06
ATGGAGCG	-0.0677 ± 0.051
TAGTTCAA	-0.0579 ± 0.0051
CCTATACG	0.00809 ± 0.051
AGTGGTCG	-0.0278 ± 0.03
GGAGTCCC	-0.0741 ± 0.049
AACTCACG	0.00507 ± 0.019
TAGTGAGA	0.209 ± 0.089
GGGGCCGA	-0.0294 ± 0.038
CTGTGGCA	0.102 ± 0.048
TAGATCCA	-0.288 ± 0.061
AAGGTACT	-0.159 ± 0.089
ACTATCAC	0.292 ± 0.044
CGTGATTC	0.0347 ± 0.022
ACGGGGGC	0.00886 ± 0.057
TCGCCACA	0.321 ± 0.039
CATAGTAA	-0.171 ± 0.074
CCTTTGAA	-0.249 ± 0.025
ACTCCCCT	-0.165 ± 0.004
CGCCACAA	0.0762 ± 0.081
CAAAGTGC	0.226 ± 0.079
GATCCTAC	-0.206 ± 0.064
ATCTCTGG	-0.165 ± 0.098

Sequence	PBM E-score of 8-mer
CGCTGGTC	0.0997 ± 0.051
AGGTGTAA	0.475 ± 0.011
TGGTGACA	0.39 ± 0.0062
CCAGACAG	-0.133 ± 0.039
ATCGCGAT	0.364 ± 0.011
ATCTGGCG	0.0377 ± 0.0091
ACTCGTAA	0.0173 ± 0.02
CCTGTTAG	0.221 ± 0.036
GAGGCGGA	-0.00262 ± 0.017
CCAACAGC	0.165 ± 0.027
AAGTACCC	-0.202 ± 0.061
CATATATC	-0.251 ± 0.017
GCCCACGA	-0.00758 ± 0.07
AATACCCG	-0.0699 ± 0.03
CTGGCAAA	-0.138 ± 0.027
ATCTTCGA	-0.126 ± 0.014
GTGCGATA	0.427 ± 0.0042
ACTATGTA	0.093 ± 0.031
ATGACTTG	-0.0315 ± 0.04
ACTCCAAT	-0.115 ± 0.019
GCGTGAAA	0.4597 ± 0.0039
TCCTCCAA	-0.113 ± 0.021
CTGAACTC	-0.00299 ± 0.0053
GAGTGTGC	0.296 ± 0.015
ATGACTGC	-0.176 ± 0.014

Sequence	PBM E-score of 8-mer
GAGAATGC	0.0866 ± 0.093
CCCCAAGC	-0.0248 ± 0.0081
CGGCCGAG	-0.107 ± 0.042
ACAACGCC	0.0994 ± 0.0078
TCAATAGA	-0.1 ± 0.035
CCTAGGGA	-0.214 ± 0.017
GAGCGCCC	-0.156 ± 0.12
CACAATTC	0.233 ± 0.011
TACATAAA	-0.174 ± 0.0034
AGCGAGTC	0.0305 ± 0.044
AGTGCAAG	0.0816 ± 0.059
ATGGCCTC	-0.202 ± 0.025
AACCGAGC	-0.00754 ± 0.025
GGCAGGAA	0.0496 ± 0.023
GTACGGTA	-0.191 ± 0.013
ACCAAGAC	0.0459 ± 0.089
ATCCGAAA	-0.0782 ± 0.078
TAGCCTAA	-0.0895 ± 0.044
GTAGGGAC	-0.222 ± 0.024
ACTGGTGC	0.0433 ± 0.034
GAGGCGGC	-0.0529 ± 0.087
CATATGAG	-0.0764 ± 0.067

From the supplement of paper PMC4166925
